From EPA's CvTdb concentration-time database
This continues a long series; more values of the same kind are listed elsewhere.

How the values were obtained:
[1] = test system: Rat; test: concentration in plasma after dosing; details: 1 h; dosed: 2-Methyltetrahydrofuran; 30 mg/kg; oral; Female; F344
[2] = test system: Rat; test: concentration in brain after dosing; details: 20 min; dosed: 2-Methyltetrahydrofuran; 10 mg/kg; oral; Female; F344
[3] = test system: Rat; test: concentration in plasma after dosing; details: 20 min; dosed: 2-Methyltetrahydrofuran; 10 mg/kg; iv; Male; F344
[4] = test system: Rat; test: concentration in plasma after dosing; details: 8 min; dosed: 2-Methyltetrahydrofuran; 30 mg/kg; oral; Male; F344
[5] = test system: Rat; test: concentration in plasma after dosing; details: 0.25 h; dosed: 2-Methyltetrahydrofuran; 10 mg/kg; iv; Male; F344
[6] = test system: Rat; test: concentration in plasma after dosing; details: 2 h; dosed: 2-Methyltetrahydrofuran; 10 mg/kg; iv; Female; F344
[7] = test system: Rat; test: concentration in plasma after dosing; details: 20 min; dosed: 2-Methyltetrahydrofuran; 30 mg/kg; oral; Male; F344
[8] = test system: Rat; test: concentration in plasma after dosing; details: 6 h; dosed: 2-Methyltetrahydrofuran; 100 mg/kg; oral; Female; Harlan Sprague Dawley
[9] = test system: Rat; test: concentration in brain after dosing; details: 4 h; dosed: 2-Methyltetrahydrofuran; 100 mg/kg; oral; Female; Harlan Sprague Dawley
[10] = test system: Rat; test: concentration in brain after dosing; details: 10 min; dosed: 2-Methyltetrahydrofuran; 100 mg/kg; oral; Female; Harlan Sprague Dawley
[11] = test system: Rat; test: concentration in brain after dosing; details: 5 min; dosed: 2-Methyltetrahydrofuran; 10 mg/kg; iv; Male; F344
[12] = test system: Rat; test: concentration in plasma after dosing; details: 1.5 h; dosed: 2-Methyltetrahydrofuran; 100 mg/kg; oral; Male; Harlan Sprague Dawley
[13] = test system: Rat; test: concentration in plasma after dosing; details: 4 h; dosed: 2-Methyltetrahydrofuran; 400 mg/kg; oral; Female; Harlan Sprague Dawley
[14] = test system: Rat; test: concentration in brain after dosing; details: 4 h; dosed: 2-Methyltetrahydrofuran; 400 mg/kg; oral; Female; Harlan Sprague Dawley
[15] = test system: Rat; test: concentration in plasma after dosing; details: 2 h; dosed: 2-Methyltetrahydrofuran; 30 mg/kg; oral; Female; F344
[16] = test system: Rat; test: concentration in brain after dosing; details: 2.5 h; dosed: 2-Methyltetrahydrofuran; 10 mg/kg; oral; Female; F344
[17] = test system: Rat; test: concentration in plasma after dosing; details: 10 min; dosed: 2-Methyltetrahydrofuran; 10 mg/kg; iv; Female; F344
[18] = test system: Rat; test: concentration in brain after dosing; details: 0.25 h; dosed: 2-Methyltetrahydrofuran; 10 mg/kg; oral; Male; F344
[19] = test system: Rat; test: concentration in plasma after dosing; details: 2 min; dosed: 2-Methyltetrahydrofuran; 30 mg/kg; oral; Female; F344
[20] = test system: Rat; test: concentration in brain after dosing; details: 8 h; dosed: 2-Methyltetrahydrofuran; 400 mg/kg; oral; Male; F344
[21] = test system: Rat; test: concentration in plasma after dosing; details: dosed: Fluorotelomer alcohol 8+2, 160 mg/kg, oral, Female, Harlan Sprague Dawley
[22] = test system: Rat; test: concentration in plasma after dosing; details: dosed: Fluorotelomer alcohol 8+2, 160 mg/kg, oral, Female, Harlan Sprague Dawley; remark: listed apart in the source
[23] = test system: Rat; test: concentration in plasma after dosing; details: dosed: Formamide, 600 mg/kg, oral, Male, Harlan Sprague Dawley
[24] = test system: Rat; test: concentration in plasma after dosing; details: dosed: Formamide, 90 mg/kg, iv, Male, Harlan Sprague Dawley
[25] = test system: Rat; test: concentration in plasma after dosing; details: 5 h; dosed: Formamide; 90 mg/kg; iv; Male; Harlan Sprague Dawley
[26] = test system: Rat; test: concentration in plasma after dosing; details: dosed: Formamide, 30 mg/kg, iv, Female, F344
[27] = test system: Rat; test: concentration in plasma after dosing; details: dosed: Formamide, 30 mg/kg, iv, Female, F344; remark: listed apart in the source
[28] = test system: Rat; test: concentration in plasma after dosing; details: dosed: Formamide, 90 mg/kg, iv, Male, Harlan Sprague Dawley; remark: listed apart in the source
[29] = test system: Rat; test: concentration in plasma after dosing; details: dosed: Formamide, 30 mg/kg, iv, Female, F344; remark: listed apart in the source
[30] = test system: Rat; test: concentration in plasma after dosing; details: dosed: Pyridine, 25 mg/kg, oral, Female, F344
[31] = test system: Rat; test: concentration in plasma after dosing; details: 1 h; dosed: Pyridine; 0.5 mg/kg; iv; Male; F344
[32] = test system: Rat; test: concentration in plasma after dosing; details: 1 h; dosed: Pyridine; 50 mg/kg; oral; Female; F344
[33] = test system: Rat; test: concentration in plasma after dosing; details: dosed: Pyridine, 5 mg/kg, oral, Female, F344
[34] = test system: Rat; test: concentration in plasma after dosing; details: 10 min; dosed: Pyridine; 50 mg/kg; oral; Male; Harlan Sprague Dawley
[35] = test system: Rat; test: concentration in plasma after dosing; details: 6 h; dosed: Pyridine; 50 mg/kg; oral; Female; F344
[36] = test system: Rat; test: concentration in plasma after dosing; details: dosed: Pyridine, 25 mg/kg, oral, Female, F344; remark: listed apart in the source

CC1CCCO1 (configuration not stated) [2-Methyltetrahydrofuran]
Details | concentration in brain [µg/g] | concentration in plasma [ng/mL]
[1] | – | 16000
[2] | 2.34 | –
[3] | – | 8800
[4] | – | 14600
[5] | – | 9640
[6] | – | 142
[7] | – | 16700
[8] | – | 783
[9] | 35.7 | –
[10] | 43.3 | –
[11] | 6.02 | –
[12] | – | 37800
[13] | – | 133000
[14] | 78.2 | –
[15] | – | 3370
[16] | 0.0304 | –
[17] | – | 10000
[18] | 2.17 | –
[19] | – | 4670
[20] | 44.1 | –

OCCC(F)(F)C(F)(F)C(F)(F)C(F)(F)C(F)(F)C(F)(F)C(F)(F)C(F)(F)F [Fluorotelomer alcohol 8+2]
concentration in plasma [ng/mL]
Details | 0.25 h | 3 h | 5 min | 6 h
[21] | 269 | – | – | 2060
[22] | – | 2390 | 52.7 | –

NC=O [Formamide]
Details | concentration in plasma [ng/mL]
[23], 2 h | 903000
[23], 5 min | 94400
[24], 2 h | 145000
[24], 96 h | 2700
[26], 1 h | 38300
[26], 3 h | 35200
[27], 8 h | 24900
[27], 12 h | 19100
[28], 5 min | 132000
[28], 36 h | 16200
[29], 10 min | 41500
[29], 18 h | 11600

Details | concentration in plasma [ng/mL]
[25] | 112000

c1ccncc1 [Pyridine]
concentration in plasma [ng/mL]
Details | 0.5 h | 1 h | 6 h | 8 h
[30] | – | 17100 | – | 13900
[33] | – | 3460 | – | 960
[36] | 16900 | – | 14400 | –

Details | concentration in plasma [ng/mL]
[31] | 52.5
[32] | 23700
[34] | 35700
[35] | 8870
